From PubChem BioAssay (NCATS)
The list shows a part of the results. These are further read-outs of the screen, such as a control signal, another cell line or another target. No call is given for them. The list favours compounds with an active or inconclusive main result. Potencies come from curve fits of mixed quality, noted in brackets.

Assay: Cell-based coincidence reporter assay to measure PMP22 gene transcription in S16 Pmp22-F2sN cells - Confirmatory screen (AID 1508646)
Conditions: S16 Schwann cells Pmp22-F2sN, dual luciferase, 24 h
Method in brief: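 S16 rat Schwann cells carrying FLuc-2A-NLuc reporter in Pmp22 3' UTR (500-1,000 cells/well) treated with pinned compounds for 24 h at 37C. Dual-luciferase reads: FLuc luminescence first, then NLuc after Stop&Glo.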

[1] = measured here: FLuc reporter channel
[2] = measured here: NLuc reporter channel
Tags describe the fitted curve by direction and shape.

| SMILES | AC50 [1] | AC50 [2] |
| --- | --- | --- |
| COc1ccc(NC(=O)CCS(=O)(=O)c2nc(-c3cccs3)cc(C(F)(F)F)n2)cc1 | 10.9 µM [falling, partial curve] | 12.2 µM [falling, partial curve] |
| COC(=O)c1c(-c2ccc(Cl)cc2)noc1N1CCN(c2cccc(C(F)(F)F)c2)CC1 | 15.3 µM [falling, partial curve] | 17.2 µM [falling, partial curve] |
| O=C(c1ccc(C(F)(F)F)cc1)N1CCC(c2nc(-c3ccc(S(=O)(=O)N4CCCC4)cc3)no2)CC1 | 9.68 µM [falling, full curve, poor fit] | 10.9 µM [falling, full curve] |
| Cc1ccc(CCNC(=O)c2ccc(Nc3nc4ccccc4n4nnnc34)cc2)cc1 | 21.7 µM [falling, partial curve] | 21.7 µM [falling, partial curve] |
| Fc1ccc(Nc2c3c(nc4ccccc24)CCC3)cc1 | 19.3 µM [falling, partial curve] | 17.2 µM [falling, partial curve] |
| Cc1ccccc1CNC(=O)CSc1nnc(C)c2c(C)n(-c3ccccc3)nc12 | 17.2 µM [falling, partial curve] | 15.3 µM [falling, partial curve] |
| O=C(c1ccc(CS(=O)c2ccccc2Cl)o1)N1CCN(c2cccc(C(F)(F)F)c2)CC1 (centres undefined) | 1.22 µM [falling, full curve] | 7.69 µM [falling, partial curve] |
| CC1CCc2c(cc(-c3ccccc3)n2-c2ccc(C(=O)NC(C)C)cc2)C1 (centres undefined) | 21.7 µM [falling, partial curve] | 24.3 µM [falling, partial curve] |
| CCC1=Nc2cc(C(=O)NCCCOC)ccc2Sc2ccc(Br)cc21 | 5.44 µM [falling, partial curve, poor fit] | 1.93 µM [falling, full curve, poor fit] |
| CCc1ccccc1NC(=O)Cn1nnc(C(=O)NCc2cccs2)c1N | 5.44 µM [falling, full curve, poor fit] | 9.68 µM [falling, partial curve] |
| CCc1ccc(NC(=O)CC2C(=O)OCCN2CC)cc1 (centres undefined) | 38.5 µM [falling, single point] | 43.2 µM [falling, single point] |
| CCOc1ccc(C(=O)Nc2ccc3nc(SCc4ccccc4)sc3c2)cc1 | 19.3 µM [falling, partial curve] | 17.2 µM [falling, partial curve] |
| COc1ccc(NS(=O)(=O)c2ccc3[nH]c4c(c3c2)CCCC4)cc1OC | 27.3 µM [falling, single point] | 10.9 µM [falling, partial curve, poor fit] |
| O=C(NCc1ccc(Cl)cc1)C(=O)Nc1cccc(Br)c1 | 30.6 µM [falling, single point] | 24.3 µM [falling, partial curve] |
| Cc1ccc(OCC(=O)Nc2ccc3nc(SCC(=O)N4CCc5ccccc54)sc3c2)cc1 | 7.69 µM [falling, full curve] | 6.85 µM [falling, full curve] |
| O=C(Nc1nc2ccc(F)cc2s1)c1nc(S(=O)(=O)Cc2ccccc2F)ncc1Cl | 13.7 µM [falling, partial curve] | 12.2 µM [falling, partial curve] |
| COCCn1c(SCc2ccccc2F)nc2c([nH]c3ccccc32)c1=O | 24.3 µM [falling, partial curve, poor fit] | 24.3 µM [falling, partial curve, poor fit] |
| CCOCCCNC(=O)c1ccc(-n2c(-c3ccccc3)cc3c2CCC(C)C3)cc1 (centres undefined) | 15.3 µM [falling, partial curve] | 19.3 µM [falling, partial curve, poor fit] |
| COc1ccc(Nc2c3c(nc4ccccc24)CCC3)cc1Cl | 19.3 µM [falling, partial curve, poor fit] | 27.3 µM [falling, partial curve] |
| Cn1c(=O)c2c(nc(NCc3ccccc3)n2Cc2ccc(Cl)c(Cl)c2)n(C)c1=O | 13.7 µM [falling, partial curve] | 24.3 µM [falling, partial curve] |
| COC(=O)c1ccccc1NC(=O)c1nc(S(=O)(=O)Cc2cccc(C)c2)ncc1Cl | 6.85 µM [falling, full curve] | 7.69 µM [falling, full curve] |

| SMILES | AC50 [1] | AC50 [2] |
| --- | --- | --- |
| O=C(CSc1ncc2c(n1)-c1ccccc1N(Cc1ccc(F)cc1)S2(=O)=O)NCCc1ccccc1 | 21.7 µM [falling, partial curve] | 21.7 µM [falling, partial curve] |
| Cc1cccc(OCC(=O)Nc2ccc3nc(SCc4ccccc4)sc3c2)c1 | 30.6 µM [falling, single point] | 24.3 µM [falling, partial curve] |
| CCN(Cc1ccccc1)C(=O)Cn1c(=O)n(-c2ccccc2)c(=O)c2c1c1cc(C)ccc1n2C | 19.3 µM [falling, partial curve, poor fit] | 24.3 µM [falling, partial curve] |
| CCCCOc1ccc(CN2C(=O)C(=O)c3cc(Br)cc(C)c32)cc1OC | 12.2 µM [falling, partial curve] | 9.68 µM [falling, full curve] |
| Cc1cc(Nc2sc(C(=O)c3ccc(F)cc3)c(N)c2C(=O)Nc2ccc(F)cc2)ccc1Cl | 6.11 µM [falling, full curve] | 6.11 µM [falling, full curve] |
| Cc1ccc(NC(=O)CSc2nc3ccccc3nc2Cc2ccccc2)c(C)c1 | 24.3 µM [falling, single point] | 24.3 µM [falling, single point] |
| CCC(Sc1nc2ccccc2c2nc(-c3ccccc3)nn12)C(=O)Nc1cccc(OC)c1 (centres undefined) | 13.7 µM [falling, partial curve] | 15.3 µM [falling, partial curve] |
| Cc1ccc(C)n1-c1nnc(N2CCCC(C(=O)NCc3cccc(F)c3)C2)s1 (centres undefined) | 27.3 µM [falling, single point] | 21.7 µM [falling, single point] |
| Cc1ccc(C)c(N2CCN(CCCNC(=O)c3ccc4nc(C(C)C)oc4c3)CC2)c1 | 24.3 µM [falling, partial curve] | 34.3 µM [falling, partial curve, poor fit] |
| CCN1CCOC(=O)C1CC(=O)Nc1cc(Cl)ccc1OC (centres undefined) | 24.3 µM [falling, partial curve] | 27.3 µM [falling, partial curve] |
| Cc1cc(C)cc(-n2c(SCC(=O)Nc3nnc(C)s3)nc3c([nH]c4ccccc43)c2=O)c1 | 43.2 µM [falling, single point] | 43.2 µM [falling, partial curve, poor fit] |
| Cc1ccc(-c2c(C)n3c4c(=O)n(C)c(=O)n(C)c4nc3n2-c2cccc(O)c2)cc1 | 5.44 µM [falling, partial curve, poor fit] | 30.6 µM [falling, partial curve, poor fit] |
| COc1ccc(Nc2nc3c(S(=O)(=O)c4ccc(C)cc4)nnn3c3ccsc23)cc1Cl | 10.9 µM [falling, partial curve] | 21.7 µM [falling, partial curve] |
| COc1c(Cl)cc(Cl)cc1/C=C(\C#N)c1nc2ccccc2[nH]1 | 24.3 µM [falling, partial curve] | 34.3 µM [falling, partial curve] |
| Cc1ccc(C)c(NC(=O)Cn2c(=O)n(Cc3ccccc3)c(=O)c3oc4ccccc4c32)c1 | 24.3 µM [falling, partial curve] | 24.3 µM [falling, partial curve] |
| COc1cccc(NC(=O)CSc2ncc3c(n2)-c2ccc(Cl)cc2N(C)S3(=O)=O)c1 | 27.3 µM [falling, single point] | 43.2 µM [falling, partial curve, poor fit] |
| COc1ccc(Nc2nc3c(S(=O)(=O)c4ccccc4)nnn3c3ccc(Cl)cc23)cc1 | 15.3 µM [falling, partial curve] | 12.2 µM [falling, partial curve] |
| Cc1c(C(=O)Nc2ccccc2Br)oc2ccc(S(=O)(=O)N3CCCCC3)cc12 | 19.3 µM [falling, partial curve, poor fit] | 17.2 µM [falling, partial curve] |
| COc1ccc(-c2nnc(SCC(=O)NCc3ccccc3)nc2-c2ccc(OC)c(OC)c2)cc1OC | 6.11 µM [falling, partial curve, poor fit] | 8.62 µM [falling, full curve, poor fit] |
| Cc1ccc(OCCSc2nc3ccc(NC(=O)c4ccc5c(c4)OCO5)cc3s2)cc1 | 19.3 µM [falling, partial curve, poor fit] | 21.7 µM [falling, partial curve] |
| Cc1ccc(NC(=O)N2CCc3cc(S(=O)(=O)N4CCC(C)CC4)ccc32)cc1F | 15.3 µM [falling, partial curve] | 13.7 µM [falling, full curve] |
